Our source for the self-cleavage values is the RNAGym collection of RNA variant scans (doi:10.7554/elife.90254).

To fix the notation:
B1: LINE1-full (parent)
chain: UACGUAGGUGGUUUUCCCCUGAUAGUGCUAAGGGGGCCUGGAAGUUUGGACUGGGCAGAGCUCAACACAGCGUGGCAAAGUGGCUGUGGCUAGACUGCCUCUCUGGAUUCCUCGUCACUCAGCAGGGCAUCUCUGAGAGAAAUGCC

Read counts are not given, so values of variants with three or more changes are uncertain.

Variants of B1 are the subject of the series. Put plainly: self-cleavage, relative activity (ratio to wild type); higher = more cleavage; in vitro, sequencing; the parent is a self-cleaving ribozyme.
Take A31G A57G C76G A141G U143C: the self-cleavage was found to be 2.74. In the case of A31G A77U U115A it was 2.01; in that of A31G A59G U143A, 0; in that of A30U U45A U104C, 0.88. Then A31G C90U A129G A140G U143C, with 0.02. For the variant A31U A65G A69G, the self-cleavage was 0.21. In the case of A31U U96A U119C A129G it was 0.04; in that of A31U A42U U62C A69U C71U A94G U96A, 0.1; in that of A31G G49A U52C G60A, 0. In the case of G34U A79G U104A A124U it was 1.67; in that of G35U A50G C95U U119C A121U, 0.14. Then G32A U45C U47C U73C A77U U87C C116U U119C, with 2.3; and G32A G55A U100C U119C U130A, with 0; and A31C A67G A140U, with 0.37.

Take G35A A69U U81A: the self-cleavage stood at 0.02.

G32A A79G U119C: the self-cleavage is 0.94.

Turning to A31U C38U U45C A50G G58A A67U U73A, the self-cleavage came out at 0.11. Then A31G A79G U102C G106A, with 1.53; and G32U U87C U115C U130A, with 0.15; and A31U A77G C99U A138G, with 1.58.

G35A A69G U73C A138G: the self-cleavage is 0.38. Then G32A U52C U81C A94G G125A, with 0. Then A31G G36C A67G U115C, with 1.53.

As to A31G A42U A140G, the self-cleavage came out at 1.2. Then A31G A69U A124U, with 0.06; and G34U C90A A121G, with 0.04; and G34A A136G A138U, with 0.58. In the case of G32A U39A U52C U100C U109C it was 1.15; in that of A31G U62C A64U A136G, 0; in that of G33U G40A U104C, 1.09.

On to A31U A42U A77G A78U, for which the self-cleavage is 1.79. In the case of G33U U45A A64U it was 0.43; in that of G32A U73C A140G, 1.93; in that of G32A U91C U100C, 1.09. Then G32A U102A U119A G127A U130A, with 0.99.

G35A U46C A121G: the self-cleavage worked out at 1.64. In the case of G35A A69U A77G A94G U102C it was 0. Then G32A A57U U62A U115A, with 0.02. Then G33A A42G A50G, with 2.22; and G33A A117G A142G, with 0.6; and A31U G48A A59G C76U U115C U130C, with 0.17. For A30U U45C U108C, the self-cleavage came out at 1.02. Then A31U G33U U45C U73A U134A, with 0.57; and A31G A43G U134C U143C, with 0.71. For G34A A50G U115C U143C, the self-cleavage was determined as 1.3. In the case of A30U G70A A94G it was 0.1. In the case of G32A U47C U119A it was 1.62; in that of G34A A94G G97C A129U A138G, 0.06. Turning to G34U A57G U115C, the self-cleavage was 2.04. In the case of A31G G35U U96C it was 0.15; in that of A31U U73C A142G, 1.53; in that of A31G U119C A129G A138G, 1.38. Regarding G35U A42G A57G G70A A94G, the self-cleavage worked out at 0.09. Then A31C A64U U85A, with 0.12; and G35A G122A A124U, with 1.27; and G33A A79G A138G, with 1.12. Then G35A A69U U112C A140G, with 0.03; and A31U A67U C98U U115A, with 0.06. For the variant G32A A78G U96A, the self-cleavage amounted to 0.06. In the case of G32A A78G U96C it was 0.16; in that of G33A U73A A124G, 0.63; in that of A31G A65U A129G A140G, 0.25. In the case of G33A A77U U96A A142G U143C it was 0.08; in that of A31G A64G C128U, 0.25; in that of A31U A43G U62C, 0.12. As to A31C A67U A78U A140U, the self-cleavage was found to be 0.21. Consider G33A U45G A57G, for which the self-cleavage amounted to 0.67.

Regarding G33C A69G A121U, the self-cleavage is 0.1. With G32A A117U A140G, the self-cleavage is 2.06.

Turning to G34A U104A G105U, the self-cleavage is 1.36. On to G34C A64U U73G A141G, for which the self-cleavage came out at 1.02. In the case of G32A U47A C84U A117G A136G it was 0.1; in that of G35U U39A G82A, 1.45. In the case of G35U A78C A141G it was 2.45; in that of G32A A79U U102C, 1.82; in that of A30U U85A U102C G127A, 0.04.

For G32A A59G A141G, the self-cleavage was determined as 0. For G35A C56U U119A, the self-cleavage was 0.16.

Turning to G35U G54U C61U A107G, the self-cleavage came out at 0.01. In the case of G34U G127U G144A it was 1.39; in that of G33U U81A U91A, 0.86; in that of G33U G35U A64G A124G, 0.07. In the case of A31G U85C A124U it was 0.19; in that of A31U G35A U73A U115A, 1.19. On to G33C A92G A117U A129G, for which the self-cleavage was 0. In the case of A31U A78G U91C A142G it was 0.45; in that of G32A A42G U73C A142C, 1.2. Then G33U G34U U96C U100C U104C, with 0. Then A31G A77U U81A, with 1.95; and A30U U73A A129G A138U, with 1.68; and G34A A42G A107G G144A, with 1.03. Regarding G35A G36A G40A U102C, the self-cleavage came to 1.13. Then G34U A92G A140U, with 0.04. Consider G34U U52C G53U, for which the self-cleavage was found to be 1.17. In the case of A31G G88U U96A, the self-cleavage came to 0.08. A31U A57G G144A: the self-cleavage stood at 0.93.

G32A U87C A94U: the self-cleavage was determined as 0.02. In the case of G34A A65U A92G A121G it was 0.12; in that of A31U A136G A141G, 1.24. In the case of G32A U62C C63U it was 0.02; in that of A31U U46G A69C, 0.29; in that of G32C U91C U96A, 0.27. Then A31U U87A U108C, with 0.18; and G34A A124U A141G, with 1.44. Regarding A31U A43G U47G, the self-cleavage was 1.2. Then G34U A129U U143C, with 1.58; and A31U U39G A94G, with 0; and A31G U73C A142G, with 1.45. In the case of A31U A50G U100C A141G it was 1.86. In the case of G34A A43G A65G U81A A117U U130C U134G it was 0.03; in that of G32U U104C U132C, 2.45. Regarding G33A U62A A67G A140U, the self-cleavage was 0.13. In the case of G34A G105A U119C A121U it was 1.54. In the case of G35C A64U U112C A141G it was 0.51; in that of G35A U73C U109A A136U, 2.32; in that of A31C A79G G80U U96C, 0.

As to G33U U46C U130C, the self-cleavage was 1.62.

As for A31U U39C U45C U73C U81A A138G, the self-cleavage was 2.7. In the case of A31G U39A U85A it was 0.21; in that of G32A U81A A136G, 1.84. G33U A69U U143C: the self-cleavage is 0.04. For the variant A31U A65G A67G, the self-cleavage amounted to 0.13. In the case of G32A U47A A64U C90U A121G it was 0.07; in that of G32A A50G G126A, 0.53; in that of A31G U62A A117U, 0.09. For A31G A78G U87C A141G, the self-cleavage was found to be 0.14.

A31G U96C A117U: the self-cleavage was determined as 0.05. Then G32A U39C U45C A92U A138G, with 0.74; and G33A C123U A129U, with 1.21; and G35A U81A U85A U100C A138G, with 0.09. In the case of A31U U87C C116A it was 0.28; in that of G33A A94G U100C U130C C146U, 0; in that of A31G U39C G54U U108C A142G, 1.05.

Regarding A31U U46C U119A, the self-cleavage was 1.26. Then A31G A50G C76U U104C, with 1.45.

As to A31G G53A A117C, the self-cleavage was determined as 1.34. In the case of A31U A77G U132C it was 1.39; in that of A31G U73A U81A U115A A117G C120U U143C, 1.38. In the case of A31U U73A A92G it was 0.22.

Consider A31U U39A A129G A136U U143A, for which the self-cleavage is 1.92. In the case of G35A U62C A69G it was 0.03; in that of G35A U62C A69U, 0.03. Then G34U A59G A78G A136G, with 0.1; and A31U A64G A79G A141G, with 0.12. On to A31U U104A U134A, for which the self-cleavage was 1.11. As to A31G A43G U87A A117G A142G, the self-cleavage was determined as 0. In the case of G32A A78G U91C G139A it was 0.07; in that of A31G C38U A42G G70C A77U U100C U112C A117G, 0.77. Consider A31G A42G A141G, for which the self-cleavage was 1.23. In the case of A31C A57G A140G it was 1.84; in that of A31U A59G U73C, 0.66; in that of G32A A59G U102A U134A, 0.02.

As to G35A U100C U109G A124G, the self-cleavage stood at 1.2. In the case of A31U C71A U112C A138U it was 0.2; in that of G32U A65U A79U, 0.23. Then G32A A69G C110A, with 0.05; and G34A U62C G83U, with 0.01.

Take A31C A42U U87A A107G A140G: the self-cleavage stood at 0.05. Take G34U A77U U112A: the self-cleavage stood at 1.24. Turning to A31U A64U U109C, the self-cleavage was 0.48. In the case of G35A U91C U96C it was 0.05. As for G32U A77U U85A U119A, the self-cleavage came out at 0.04. Turning to A31G A77G G83A U100C A138G, the self-cleavage came out at 2.04. Then G35A A124G A129U, with 0.98; and A30U U62C A64U A79G, with 0.02. In the case of A31G A67G C111G A138G it was 1.53; in that of G34U U108C C113U, 1.32.
